Experimental findings from the RNAGym collection of RNA variant scans (doi:10.1093/nar/gkz1192) are described below.

The source gives no read counts; variants with many changes may rest on few reads.

B1: CPEB3 Ribozyme (parent)
chain: UAACAGGGGGCCACAGCAGAAGCGUUCACGUCGCAGCCCCUGUCAGAUUCUGGUGAAUCUGCGAAUUCUGCUGUAUAUCUC

The variants in the data set derive from B1. Put plainly: self-cleavage, relative activity (ratio to wild type); higher = more cleavage; in vitro, sequencing. The method in brief: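 For each CPEB3 ribozyme variant, relative activity is its cleaved/total read fraction divided by the unmutated ribozyme's. Barcoded error-prone PCR libraries were transcribed by T7 RNA polymerase (5 hours, 37°C) and held in DNase I for 15 min before an EDTA stop, with cleavage occurring throughout. Template-switching reverse transcription and Illumina sequencing were used to read the RNAs. A 5-read minimum applied, and results are the mean of three batches.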
A5G A57G U60C: the self-cleavage was found to be 0.43.
The same measure for A5G A20G U25C A57G A75G: 0.2; for A5G A28G U58C: 0.52.
In the case of A5G C11G A75G it was 0.58; in that of A5G A21G A45G A47U U67C U72C U80C, 0.06; in that of A5G A20U U60C, 0.19.
Turning to A5G A35G C37A A64G C81A, the self-cleavage was found to be 0.72.
For the variant A5G A18U A35G U78C, the self-cleavage was 0.68.
The same measure for A5G A21G U48C A57G A75G: 0.48; for A5G C12U U25C U54A: 0.32; for A5G A47C U51C: 0.12.
As to A5G A28G U78C, the self-cleavage came out at 0.44.
In the case of A5G C12U U74A it was 1.11; in that of A5G A45G A47G C50G U67C, 0.06; in that of A5G A35G C37A A75G, 0.44.
Turning to A5G A20G A28G G46U, the self-cleavage was determined as 0.12.
The same measure for A5G A21G U26C G53A A56G A57G: 0.06; for A5G C11A A57U: 0.24.
A5G A47G U66A: the self-cleavage was 0.59.
The same measure for A5G A20G C32A U80A: 0.06; for A5G A28G U43C C44A U67C: 0.1.
The same measure for A5G A28G U31C U41C: 0.34; for A5G A21G C38A U60A: 0.38.
Regarding A5G A21G U43C A57U G70C, the self-cleavage was 0.05.
In the case of A5G C12U A15U C38U U51G it was 0.8; in that of A5G C11G A20U C23G U49A A56G, 0.05; in that of A5G C11G A21G U26G U60C, 0.09.
The same measure for A5G A18U U41C A56G U67C: 0.23.
In the case of A5G A21G A35U C40U A56U U74A A75U it was 0.09.
As for A5G A45G A56G, the self-cleavage was 0.07.
The same measure for A5G A57G U80A: 0.9; for A5G A20G U41C U67C G70C: 0.22.
In the case of A5G A28G C29G it was 0.09.
A5G A20G A45U U80C: the self-cleavage was found to be 0.22.
The same measure for A5G C11G U43C G73U: 0.34; for A5G A28G U69C U72C: 0.17; for A5G A21G C34G: 0.53.
The same measure for A5G A21G U41C A45G U72A: 0.07.
In the case of A5G A47G U60A it was 0.32; in that of A5G A21G U67A U69C U74C, 0.31; in that of A5G A47U U48C A65G U80C, 0.16.
With A5G A45U A77G C81U, the self-cleavage was 0.
The same measure for A5G A18U U72A: 0.36; for A5G A21G A35U U66C: 0.25.
In the case of A5G C14G G24A U31A A56U U72C it was 0.07.
In the case of A5G A45U U58C it was 0.26; in that of A5G C14A A15G A56G, 0.26.
Consider A5G A20G U26C U43C G55U U69C, for which the self-cleavage was 0.32.
In the case of A5G A18U U26A it was 0.36.
As to A5G A21G G53A U54G, the self-cleavage came out at 0.7.
With A5G A20G A28G U43A U49A U72C, the self-cleavage turned out to be 0.04.
In the case of A5G A45G U58A U76C U78G it was 0.36; in that of A5G A35U U48C, 0.62; in that of A5G A18U U69C, 0.22.
For the variant A5G A18G U41A, the self-cleavage worked out at 0.41.
The same measure for A5G A20G U26A A35G A47G U67C: 1.1.
In the case of A5G A35G U49G U60A U66A U72C it was 0.2; in that of A5G A28G U41A U76A, 0.69; in that of A5G A18U C39A U60C A75U C81G, 0.07.
In the case of A5G A21G U26G A64G it was 0.33; in that of A5G A18U U48C U51C U67C, 0.08.
Consider A5G C14U U41C U54C, for which the self-cleavage turned out to be 0.69.
In the case of A5G A64G U80A it was 0.48; in that of A5G A21G A57G, 0.53; in that of A5G C11U U72C, 0.25.
Regarding A5G C12U G24U U26C A45U U54C U67A, the self-cleavage is 0.
In the case of A5G A47G A57C it was 0.11.
As to A5G A28G U43C U60A C79U, the self-cleavage is 0.13.
With A5G A20G G24A C27U, the self-cleavage was found to be 0.48.
Take A5G C12U A45G U69C: the self-cleavage came out at 0.42.
The same measure for A5G A20U U31A G55A G73A: 0.58; for A5G A35G G55A: 0.77.
In the case of A5G A20G A35U U60C A64G U69C it was 0.05; in that of A5G A28G A35U U58A U72G, 0.11; in that of A5G A20U A21G U58C U69C, 0.68.
In the case of A5G A28C U72C it was 0.74.
On to A5G A20G A56G, for which the self-cleavage turned out to be 0.37.
The same measure for A5G A45G U49C U69G: 0.07; for A5G C11G A18G A28U: 0.38; for A5G A21G A45G A65C: 0.42.
For the variant A5G A45U U49C A65U, the self-cleavage was determined as 0.21.
In the case of A5G A20G A21U A45G A65G U78C it was 0.11.
The same measure for A5G A56G U60A U78C: 0.24; for A5G A21G U41C A57U: 0.24; for A5G A28G U43A U54C G55U: 0.57.
In the case of A5G A28G U49C A57U it was 0.13; in that of A5G A18U G36C U69A, 1.08; in that of A5G C11A A35U U74C, 0.31.
Consider A5G A35U U60C A64G, for which the self-cleavage came to 0.18.
The same measure for A5G A20U U43A U54C A57G U58C U60C: 0.31; for A5G A18U C32U A56U: 0.51.
The same measure for A5G C14U C29U A56G U72G: 0.09; for A5G A28G U48C U76A A77U: 0.26.
In the case of A5G C12U A15G C17U A56U, the self-cleavage was found to be 0.2.
In the case of A5G A18U A35U U51C U54C it was 0.22; in that of A5G A20G A35G, 1.15; in that of A5G A20U U43C A77G, 0.05.
In the case of A5G A18U A20U C23A A35G A57G it was 0.42; in that of A5G A20G U25C, 0.45.
In the case of A5G A35C A57U it was 0.35; in that of A5G A45G U51G U69C, 0.26; in that of A5G C14U U60A, 0.56.
For the variant A5G A18G U41A U43C U78C, the self-cleavage was 0.31.
The same measure for A5G A18U G24U A35G U43C U60C U74C: 0.07; for A5G C12A C23U A28G: 0.06; for A5G C11G U51C A57G A65U: 0.09.
The same measure for A5G A47U U48C U67C U69A: 0.24; for A5G C14G A35U U60A: 0.27.
In the case of A5G A21G U31C U51A C81U it was 0.11.
For the variant A5G A18U A28G C32U, the self-cleavage worked out at 0.31.
The same measure for A5G A20G U58A U69A: 0.16.
In the case of A5G A18U A20G A28U C50A U66C it was 0.07; in that of A5G A20U C29U C38U, 0.27.
In the case of A5G A20G A64G it was 0.59.
With A5G A18U A20U U43C A56G U58C A75C, the self-cleavage stood at 0.07.
The same measure for A5G A18U A20U C37U A65G: 0.1; for A5G A45U U51A C62A U69C U72A U74A: 0.07.
In the case of A5G A28U A35U G53C A56G U60A it was 0.12.
In the case of A5G A20G A28U U49A it was 0.13; in that of A5G A64G U72C, 0.75.
As for A5G A21G U60C U69C, the self-cleavage was 0.42.
The same measure for A5G A28G A35U U41A A75U: 0.11.
For A5G A28C U51A, the self-cleavage worked out at 0.26.
With A5G C11A A15G U25C A56G, the self-cleavage stood at 0.07.
For A5G A45G U80A, the self-cleavage is 0.95.
The same measure for A5G A35G U54C U60C: 0.39.
In the case of A5G A45G U49A A57G U69C it was 0.29.
The same measure for A5G A57G C62G U67C: 0.25.
Turning to A5G A21G A56G A65G, the self-cleavage is 0.1.
Consider A5G A35G U66C U74C, for which the self-cleavage came out at 0.97.
In the case of A5G A56U U60C U80C it was 0.05; in that of A5G A28G U60C, 0.16; in that of A5G A57U A64G A65G, 0.19.
The same measure for A5G A18U G33A A45U U60C: 0.07; for A5G A20U U80G: 0.23; for A5G A20U A28G U69C U80C C81A: 0.07.
In the case of A5G A47G U74A it was 1.18; in that of A5G A35U A45C U78C, 0.28.
As for A5G A18U G19A U43C A47G A57G, the self-cleavage turned out to be 0.13.
In the case of A5G A45U U49C G55A U58C C68A, the self-cleavage was 0.04.
The same measure for A5G A20U C29U: 0.4; for A5G A18G U72C A75G: 0.17.
In the case of A5G A28U C40U U58C U66C A77G it was 0.17.
In the case of A5G C14G U41C U51C U54A U74C it was 0.32; in that of A5G A18U G42A, 0.31.
On to A5G A18U A65U U69A A77U, for which the self-cleavage was found to be 0.2.
In the case of A5G A21G U26C U48C C59U it was 0.39; in that of A5G A64G C68G U78A, 0.13; in that of A5G A28G U58A C59A, 0.1.
The same measure for A5G A35U U58A U66C: 0.05; for A5G A35G U60C A64G U74A A75G: 0.36.
On to A5G C14A A47U, for which the self-cleavage turned out to be 0.48.
In the case of A5G A21U A35G C62U it was 0.37; in that of A5G A77G U78A, 0.74.
In the case of A5G C12U U25C it was 0.24; in that of A5G A45G A75G, 0.52.
In the case of A5G A35U U41A A47G U51C G61A U72C it was 0.12; in that of A5G A45G A47U U58A U60C U80C, 0.5.
As for A5G A18U U26A A28G U43G U69C A77U, the self-cleavage amounted to 0.
The same measure for A5G A20C U31C U76A U80C: 0.12; for A5G A20U C38U A47U U69G U72A: 0.15.
With A5G A35G U41C A65G, the self-cleavage amounted to 0.44.
Consider A5G A20G C23A, for which the self-cleavage is 0.44.
In the case of A5G A18U U54C it was 0.44; in that of A5G C14U A18G A20G U26C U41C C81A, 0.16.
In the case of A5G A18U U26C U41A G46A A64G U76C it was 0.04; in that of A5G A18G U31C U54A U72A A75U U76C, 0.09.
